# This is one part of the list. The full chains were built here from the parent and the listed change. Values near 0.05 are background.
# B1: TEV protease; numbered along this chain (parent)
# chain: MGESLFKGPRDYNPISSSICHLTNESDGHTTSLYGIGFGPFIITNKHLFRRNNGTLVVQSLHGVFKVKDTTTLQQHLVDGRDMIIIRMPKDFPPFPQKLKFREPQREERICLVTTNFQTKSMSSMVSDTSCTFPSGDGIFWKHWIQTKDGQCGSPLVSTRDGFIVGIHSASNFTNTNNYFTSVPKNFMELLTNQEAQQWVSGWRLNADSVLWGGHKVFMVKPEEPFQPVKEATQL
# Variants of: B1
# Test: raw area under fraction-flipped curve 0-4 h after induction (AUC4h, not background-subtracted), DNA-recorder readout of cleavage of the substrate (dimensionless); higher = more cleavage of the substrate by the protease variant
# Conditions: temperature: 34 °C; time window: 0-4 h after rhamnose induction
# Protocol: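 In vivo DNA recorder in E. coli TOP10(DE3) ΔrhaA at 34 °C. Each TEVp single-site mutant (parent TEVp 0) is paired with a single-site variant of the 7-mer TEVs (canonical ENLYFQ|S). The substrate sits between flexible linkers in a Bxb1-sfGFP-TEVs-SsrA fusion, so cleavage stabilises Bxb1 and speeds flipping of a recombination array, read by NGS. The value is the raw area under the fraction-flipped curve over 0-4 h after rhamnose induction (AUC4h), with ≥20 reads per time point. It is not background-subtracted; inactive controls average about 0.047.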
# 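Note: Bxb1 expression induced with 0.2% (w/v) L-rhamnose at OD600 near 0.5, cultures sampled hourly, flipped fraction per protease–substrate barcode pair counted by paired-end Illumina sequencing.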
Variant,area with substrate ENLYFQA,area with substrate ENLYFQC,area with substrate ENLYFQH,area with substrate ENLYFQK,area with substrate ENLYFQL,area with substrate ENLYFQM,area with substrate ENLYFQN,area with substrate ENLYFQP,area with substrate ENLYFQQ,area with substrate ENLYFQS,area with substrate ENLYFQT,area with substrate ENLYFQV,area with substrate ENLYFQW,area with substrate ENLYFQY,area with substrate ENLYFQD,area with substrate ENLYFQF,area with substrate ENLYFQG,area with substrate ENLYFQI,area with substrate ENLYFQR,area with substrate ENLYFQE
E103H,0.1,0.0964,0.0726,0.0561,0.0906,0.0881,0.0746,0.0627,0.0735,0.0892,0.0677,0.0405,0.0673,0.0809,,,,,,
E103V,0.0992,0.0884,0.0811,0.0712,0.064,0.0821,0.0687,,,0.0977,0.077,0.0604,0.0417,,0.0315,0.0682,0.0982,0.0834,0.0631,
Q105Y,0.0902,0.104,,0.0661,0.0634,0.0755,0.0811,,,0.101,0.0613,0.0816,0.0648,,,0.0712,0.106,0.0594,0.0413,
R106T,0.0788,,0.0734,,0.059,0.0875,0.0691,0.0693,0.0733,0.107,0.0763,0.0669,0.0733,,0.0628,,0.106,0.0516,0.0651,
E107G,0.0802,0.0866,0.0751,0.0589,,0.0873,0.0748,,0.0581,0.105,0.0722,0.0551,,,,,0.102,0.0567,0.0402,0.0726
E108D,0.0936,0.0908,0.0816,0.0521,,,0.0943,0.0543,0.0802,0.105,0.0712,,0.0552,,,,,0.0599,0.0719,
R109E,0.0917,0.0784,0.0889,0.058,0.0631,0.0989,,0.0759,,0.0898,,,0.0481,0.0699,0.085,0.0877,0.0572,0.0712,0.056,
L112E,0.0567,0.0707,0.0617,0.0611,0.0621,0.01,0.0532,0.0603,,0.0584,0.0606,0.0375,0.0505,,,,0.147,,0.0548,
L112R,0.0828,0.103,,0.0604,0.0501,0.0741,0.072,,,0.0894,0.0727,0.0558,0.0724,0.0659,,,0.0771,0.0733,,
V113Q,0.0736,0.077,,0.0614,0.0554,0.0746,0.0577,,0.0599,0.0804,0.0571,0.0499,0.0548,,,,0.0735,0.0646,0.0715,
T114A,0.0877,0.11,,0.0716,0.0612,0.106,,,0.0807,0.107,0.0712,0.0608,0.0696,0.086,0.0757,,0.0906,0.0377,0.067,
T114W,0.105,0.113,0.077,0.0554,0.0521,0.0821,0.101,0.0584,,0.0938,,0.0468,0.0479,,0.0724,,0.0768,0.0362,0.0541,0.0613
F117R,0.11,,0.083,,,0.0847,0.0684,,0.0752,0.108,0.0575,0.0631,,,0.0917,,,0.0524,0.0683,
S121G,0.106,,0.0881,,0.112,,0.0774,0.0659,,0.11,0.0704,0.0634,,,0.0345,,0.0882,0.0643,0.0565,0.0307
S121P,0.088,0.115,,0.0653,0.0644,,0.0764,0.0645,0.0702,0.103,0.0694,,,0.0697,,,0.076,,0.0634,
S123E,0.115,0.111,0.0616,,0.0823,0.0871,0.0968,,,0.0989,0.0672,,0.0626,0.0824,0.0888,0.0642,0.081,0.0642,0.0598,
S123G,0.0896,,0.0727,0.0667,0.0633,0.111,0.0807,0.06,0.0668,0.103,,0.0544,0.0759,0.0626,0.0802,0.0719,0.13,0.0538,0.0574,0.0723
S124T,0.0816,0.109,,0.0634,0.0584,0.0822,0.0747,,0.0402,0.0978,0.0629,0.0669,0.0618,,,0.088,0.115,0.065,0.0595,
M125E,0.0989,0.122,0.0866,,0.0624,,0.0564,0.0633,0.0468,0.0945,0.0554,0.059,0.0606,,0.0916,0.0698,,0.075,0.0679,
V126E,0.0881,,,0.0614,0.0728,0.092,,,,0.078,0.0793,,0.0597,,,,,,0.0615,
S127M,0.133,0.117,0.0822,0.0593,0.0236,0.0591,,0.0343,,0.11,0.0722,0.0646,0.0607,0.0868,,0.0993,,0.0668,0.056,
T129C,0.087,0.0902,0.0671,0.0503,0.0577,0.0902,0.0884,,,0.1,0.0642,,,0.0732,0.0695,,0.08,0.0507,0.0493,
S130I,0.088,0.117,0.0789,,0.0551,0.0882,0.0383,0.0511,,0.101,,,0.066,,,0.0655,0.121,0.0542,0.0644,
S130P,0.0601,,0.0475,0.0413,0.0371,,0.0447,,,0.0518,0.0469,,0.0437,0.0405,0.0231,,,,0.0128,
S130W,0.0708,0.0824,0.0682,0.0637,0.0457,0.0848,,0.0591,,0.0728,0.0541,,0.054,0.0658,,0.0613,0.0611,0.0561,,

# Reference: the supplement of paper PMC12217912
